In PubChem BioAssay AID1963576 (National Center for Advancing Translational Sciences (NCATS), 2024):
Hit rate of the full screen: of about 46,000 compounds, about 60 (0.1%) were called active. Roughly 3% stayed inconclusive and do not appear here. The call rests on the fitted dose curve; in most records, active means well fitted inhibition curve with a large enough effect; inconclusive means small, poorly fitted or top-dose-only effect; inactive means no such curve, though single readings can be large or run the other way. The list shows a part of the results.

Assay: Primary qHTS assay for Inhibitors of ovarian cancer metastasis using an organotypic tumor microenvironment (TME) model. Further: nearly all actives have a fitted effect of over 65% in size.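 On activity change, negative = inhibition: plate controls were DMSO wells for no effect and tomatine positive control wells for full effect.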
Conditions: SKOV3ip1-GFP adhesion/invasion on 3D omental model, fluorescence; series mostly up to 45.8 µM; activity change, negative = inhibition: at the top concentration
Outline: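 Primary human omental fibroblast/mesothelial 3D culture pre-formed 48 h. SKOV3ip1-GFP cells added with compounds (0.36-46 umol/L), incubated 2 h RT/16 h 37 C, fixed; GFP cells quantified at 488/509 nm.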

Activity change, negative = inhibition, inactive:
CCOCCc1nn2c(=O)cc(COC(=O)c3ccc4c(c3)OCO4)nc2s1 2.65%, Cc1nn(C)c2c1c(C(F)(F)F)cc(=O)n2C(C)C(=O)NCc1ccccc1 (stereo not given) 3.29%, Cc1ccc(C)c(N2CCN(CCCNC(=O)c3ccc4nc(C(C)C)oc4c3)CC2)c1 2.01%, O=C(NCc1ccccc1)c1ccc2c(c1)sc1nc(-c3ccc(F)cc3)cn12 10.1%, Cc1oc2c(c(C)cc3oc(=O)c(CC(=O)NCCc4ccc(Cl)cc4)c(C)c32)c1C -7.7%, Cc1cccc(NC(c2nnc(-c3ccccc3)o2)c2ccc(F)cc2Cl)c1C (stereo not given) -13.7%, Cc1ccc(Cl)cc1N1CCN(C(=O)C2CCN(S(=O)(=O)c3c(C)noc3/C=C/c3ccccc3F)CC2)CC1 -3.3%, Cc1ccc(-c2cn3c(n2)sc2cc(C(=O)NC4CCCCCC4)ccc23)c(C)c1 -0.902%, CC1(C)O[C@H]2[C@@H](O1)[C@@H](C(=O)Nc1cc(F)ccc1F)O[C@@H]1OC(C)(C)O[C@@H]12 -2.88%, O=C(O)CCSc1nnc(-c2ccc(Cl)cc2Cl)o1 1.64%, CCOC(=O)c1ccc(CN(Cc2ccc(Cl)cc2Cl)S(=O)(=O)c2cccc(Cl)c2)cc1 20.7%, COc1ccc(-c2nc3n(n2)C(c2cccc(C)c2)C(C(N)=O)=C(C)N3)cc1OC (stereo not given) 17.7%, CNC(=O)c1ccc(N2C(=S)N(c3ccc(C#N)c(C(F)(F)F)c3)C(=O)C2(C)C)cc1F 11.1%, Cc1ccc2nc(N(Cc3cccnc3)C(=O)CCc3ccccc3)sc2c1 -3.94%, Cc1cccc(-c2cc(C(=O)O)c3c(-c4ccc(F)cc4)[nH]nc3n2)c1 2.09%, CCOC(=O)C1=C(CN2CCCCC2)NC(=O)NC1c1ccc(OC)cc1 (stereo not given) -5.82%, COc1ccc(CCNC(=O)CCn2c(=O)c3cccn3c3ccc(F)cc32)cc1OC -27.2%, CCOc1ccccc1NC(=O)c1cn(C2CCCCC2)c(=O)c2c1c1ccccc1n2C -2.88%, COc1cc(OC)c(NC(=O)Nc2cc(C)on2)cc1Cl 13.7%, NS(=O)(=O)c1ccc(CCNC(=O)CCn2c(=O)c3cccn3c3cccnc32)cc1 -3.61%, COc1cc2nc(N3CCN(C(=O)C4COc5ccccc5O4)CC3)nc(N)c2cc1OC (stereo not given) 9.47%, COc1ccc(Cl)cc1NC(=O)c1cc2nc(-c3ccc(C)cc3)cc(C(F)(F)F)n2n1 0.52%, CCOc1cc2ncc(C#N)c(Nc3ccc(OCc4ccccn4)c(Cl)c3)c2cc1NC(=O)C=CCN(C)C -10.3%, Cc1sc2c(c1C)c(=O)n(-c1ccc(Cl)cc1)c(=O)n2CC(=O)c1ccccc1 2.86%, COc1cccc(C(=O)Nc2ccc3nc(SCC(=O)N4CCc5ccccc54)sc3c2)c1 2.87%, Cc1c(NC(=O)c2ccc(-c3ccc(F)cc3)o2)cccc1-c1nc2ncccc2o1 -6.9%, Fc1ccc(Nc2nc(-c3ccc(F)cc3)c3c(n2)-c2ccccc2OC3)cc1 -12%, O=C(c1cnc(N2CCCCC2)c2ccccc12)N1CCN(c2ccc(F)cc2)CC1 2.85%, O=c1c(O)c(-c2ccc(O)cc2)oc2cc(O)cc(O)c12 26.8%, COc1cc(NC(=O)CCCN2C(=O)CCn3nc(-c4cn(C)c5ccccc45)cc32)cc(OC)c1 -7.98%, CCOC(=O)C(C)Nc1ncnc2onc(C)c12 (stereo not given) -12.4%, CSc1nc(C)cc(Nc2cccc(C(=O)O)c2)n1 -18.3%, CCOc1ccccc1CNC(=O)c1cc2oc3ccccc3c2n1CC 13.4%, O=c1[nH]c2ccc(S(=O)(=O)Nc3cc(Cl)ccc3O)cc2o1 -1.84%, COc1cccc(CNC(=O)c2ccc3c(c2)sc2nc(-c4ccccc4)cn23)c1OC -0.143%, Cc1cc(C)cc(NC(=O)c2cc3c(=O)n(Cc4ccco4)ccc3nc2C)c1 -24.2%, CCOc1cccc(C2c3[nH]c4ccccc4c3CCN2C(=O)Cc2cccc(OCC)c2OCC)c1 (stereo not given) 6.46%, CC1CCc2nc(NC(=O)Cc3ccc(Cl)cc3)sc2C1 (stereo not given) -8.94%, Cc1cc(C)cc(NC(=O)CN(c2cccc(C)c2C)S(=O)(=O)c2ccccc2)c1 2.83%, COc1ccc(C2=NS(=O)(=O)N(C)C(C(=O)NC(C)c3ccccc3)=C2)cc1OC (stereo not given) 3.84%, O=C(CSc1nc(-c2ccccc2)no1)N1CCN(c2ccc(F)cc2)CC1 6.53%, CC1=C(C(=O)OC2CCCC2)C(c2ccc(Cl)cc2)CC(=O)N1 (stereo not given) -18%, CSc1cccc(NC(=O)N2CCN(S(=O)(=O)c3ccc4c(ccn4C)c3)CC2)c1 -5.39%, COc1ccc(-c2nc(SCCOc3cc(C)ccc3C(C)C)n3[nH]c(=O)cc3n2)cc1 4.18%, Cc1cccc(NC(=O)C2CCN(S(=O)(=O)c3c(C)noc3/C=C/c3ccco3)CC2)c1C -5.65%, COc1cccc(N2C(=O)CSC23C(=O)N(Cc2ccccc2F)c2ccccc23)c1 (stereo not given) 48.6%, CC(=O)N(Cc1cccnc1)c1nc2cc(C)cc(C)c2s1 8.86%, O=S(=O)(c1ccc(Cl)cc1)c1nnn2c1nc(NCc1ccccc1)c1sccc12 -3.17%, Cc1ccc(-n2c(=O)[nH]c3sc4c(c3c2=O)CCCC4)cc1 -8.75%, CC(=O)Nc1ccccc1-c1nc2ccccc2n(C(C)C(=O)Nc2cccc(C)c2C)c1=O (stereo not given) -7.52%, CCc1ccc(CN(Cc2ccco2)C(=O)c2ccc(C)cc2)cc1 -6.36%, CCOc1ccc(NC(=O)CCc2c(C)nc3c(c(C)nn3-c3ccccc3)c2C)cc1 -8.36%, CSc1ccc(/C=C/c2nc3ccccc3n2S(=O)(=O)c2ccc(F)c(C)c2)cc1 -0.46%, COc1ccccc1C(=O)N(Cc1ccco1)Cc1ccccc1F -1.41%, COc1ccc(Cl)cc1NC(=O)CN1C(=O)CSc2ccc(S(=O)(=O)N3CCCC3)cc21 -12.2%, Cc1cc(NC(=O)c2ccco2)cc(-c2nc3cc(Cl)ccc3o2)c1O 0.812%, CCc1ccc(C(=O)c2cn(CC(=O)Nc3cccc(C)c3C)c3nc(C)ccc3c2=O)cc1 1.91%, COc1cc(OC)c(NC(=O)CN(C)S(=O)(=O)c2ccc3c(c2)CCCC(=O)N3)cc1Cl 35.7%, CCC(C(=O)N(C)Cc1ccccc1)n1nc(C)c2sc3ccccc3c2c1=O (stereo not given) -5.3%, Cc1cccc(NC(=O)CSc2nc(C)c(Cc3ccccc3)c(=O)[nH]2)c1C -6%, FC(F)(F)c1ccc(Nc2nc3ccc(Oc4ccnc(-c5ncc(C(F)(F)F)[nH]5)c4)cc3[nH]2)cc1 17.7%, Cc1ccc(CNC(=O)c2cc(Sc3ccc(F)cc3F)nc3ccccc23)cc1 -3.82%, COc1ccc(NC(=O)C2CCCN(S(=O)(=O)c3ccc4[nH]c(=O)ccc4c3)C2)cc1OC (stereo not given) -23.8%, CCOC(=O)N1CCN(S(=O)(=O)N2CCCC(C(=O)NCc3ccccc3OC)C2)CC1 (stereo not given) 5.88%, CC(=O)N1CCCC1c1nc2ccccc2n1Cc1cc(C)ccc1C (stereo not given) 0.784%, Cc1ccc2ccc3cc(C(=O)Nc4ccc(C)c(F)c4)nc3c2[nH]1 -5.97%, O=C(Cc1ccc(F)cc1)Nc1cccc(-c2nc3cccnc3s2)c1 -2.66%, O=C(NCC(c1cccnc1)N1CCc2ccccc2C1)C(=O)Nc1cccc(Cl)c1 (stereo not given) 6.87%, Cn1c(=O)n(C)c2cc(N3CCOCC3)c(NS(=O)(=O)c3ccc(Br)cc3)cc21 3.87%, CCc1ccc(NC(=O)CCc2c(C)n(C)c3cc(-c4ccccc4C)nn3c2=O)cc1 -5.68%, Cc1ccc(CCNS(=O)(=O)c2ccc3c(c2)CCN3C(=O)CCC(=O)O)cc1 0.314%, COc1cccc(N=C2SC(C(=O)Nc3cccc(Cl)c3)CC(=O)N2C)c1 (stereo not given) 6.39%, CCOC(=O)c1cnc2c(ccc3ccccc32)c1Nc1ccc(OC)cc1OC -8.88%

outcome, inactive:
CCc1ccccc1NC(=O)CSc1nc2ccccc2nc1Cc1cccc(OC)c1, CC(C)c1nn2c(=O)cc(COC(=O)COc3ccccc3F)nc2s1, Cc1cc(-c2ccc(C)c(S(=O)(=O)N(C(C)C)C3CCCCC3)c2)on1, Cc1cccc(NC(=O)c2ccc(F)c(S(=O)(=O)N3CCN(c4ccc(F)cc4)CC3)c2)c1, Cc1ccc(-c2cn3c(n2)sc2cc(C(=O)NC4CCCCC4)ccc23)cc1, CC(CNC(=O)c1cc2ccccn2n1)c1ccccc1 (stereo not given), Cc1cc(Br)ccc1NC(=O)C(NS(=O)(=O)c1cccs1)c1ccccc1 (stereo not given), Cc1ccc(-n2ncc(C(=O)N(C)Cc3ccccc3)c2-n2cccc2)cc1, Cc1ccc(-c2nc3scc(CCNS(=O)(=O)c4c(C)noc4C)n3n2)cc1, O=C(OCC1CCCO1)c1ccc2c(c1)N(Cc1cccc(F)c1)C(=O)c1ccccc1S2(=O)=O (stereo not given), CCC(=O)N1CCc2cc(Br)cc(S(=O)(=O)N3CCN(c4cccc(Cl)c4)CC3)c21, Cc1nc2c(-c3ccc(F)cc3)c(C)nn2c(C)c1CCC(=O)NCc1cccc(Cl)c1, Cc1cc2c(cc1S(=O)(=O)CCC(=O)N(C)Cc1ccccc1)OCC(=O)N2, COc1ccc2c(CNCCc3ccccc3OC)c(C(=O)O)n(Cc3ccc(F)cc3Cl)c2c1, O=C(Nc1ccccc1)N(Cc1cccs1)c1ccc(Cl)cc1, Cc1ccc(S(=O)(=O)n2nc(C)c(S(=O)(=O)N3CCCCC3)c2C)cc1, CCOc1ccc(NC(=O)CC2C(=O)N(c3cccc(C)c3)C(=O)N2CCC2=CCCCC2)cc1 (stereo not given), CCCCN(CC)C(=O)C1CCC(CNS(=O)(=O)c2cccc3nsnc23)CC1 (stereo not given), COc1ccc(CNC(=O)CCc2c(C)nn(-c3ccc(N4CCOCC4)nn3)c2C)cc1, COc1ccc(CCNC(=O)C2=C(C)C(=O)OC23CCCCC3)c(OC)c1, CCOC(=O)c1ccc(CN(Cc2ccc(F)cc2)S(=O)(=O)c2cc(C(=O)Nc3ccccc3CC)ccc2F)cc1, Cc1cccc(N2CCN(C(=O)CCCn3ncn4c(cc5occc54)c3=O)CC2)c1C
